From PubChem BioAssay AID902 (National Center for Advancing Translational Sciences (NCATS), 2007)
Several values for one entry are separate records, joined by “and”; a condition that tells them apart may be missing. Equal entries are not always repeated. About 1,900 (1.5%) of roughly 130,000 compounds were called active. Inconclusive results, whose numbers are uncertain, are shown with a selection of clear calls. Calls come from the whole dose curve; as a rule, active = well fitted cell-killing curve with a large enough effect; inconclusive = small, poorly fitted or top-dose-only effect; inactive = no such curve, though single readings can be large or run the other way. Potencies beside an inconclusive call are fits to weak or partial responses and may not hold up.

Assay: qHTS Screen for Compounds that Selectively Target Cancer Cells with p53 Mutations: Cytotoxicity of p53ts Cells at the Nonpermissive Temperature; note: nearly all actives have a fitted effect of over 55% in size
Conditions: H1299-p53A138V viability at 39C, ATP luminescence, 24 h; series mostly up to 46.1 µM
Potency is the fitted concentration of half-maximal effect; tags give direction and shape of the fitted curve.

Question: With `COc1ccc(C)cc1NC(=O)C(=O)NCC(c1cccnc1)N1CCN(c2ccccc2F)CC1` (stereo unspecified) as the compound, how does the Potency read?
Answer: inconclusive: 0.355 µM [cytotoxic, full curve, poor fit]

Question: With `Cc1ccc(NC(=O)Cn2c(=O)n(CC(=O)NCCc3ccccc3)c(=O)c3ccccc32)cc1C` as the compound, how does the Potency read?
Answer: active: 10 µM

Question: Which Potency does the source give for `CCC(C(=O)Nc1ccc(C(C)=O)cc1)n1cnc2nc3c(cc2c1=O)CCCC3` (stereo unspecified) here?
Answer: inconclusive: 0.02 µM [cytotoxic, full curve, poor fit]

Question: For `CCOc1ccccc1NS(=O)(=O)c1ccc2c(c1)CC(C)N2C(=O)C1CC1` (stereo unspecified), which Potency is on record?
Answer: inactive

Question: For `Cc1nc2sc(C(=O)O)c(N)c2c2c1COC(C)(C)C2`, which Potency is on record?
Answer: inactive

Question: With `CC1=CC(=C2C(=O)c3ccccc3C2=O)C=C(C)O1` as the compound, how does the Potency read?
Answer: inactive

Question: For `CCc1nc2ccccc2n2c(-c3ccccc3)c3c(=O)n(C)c(=O)n(C)c3c12`, which Potency is on record?
Answer: inactive

Question: With `Cc1ccc(S(=O)(=O)Nc2ccc(NC(=O)Nc3cccc(C(F)(F)F)c3)cc2)cc1` as the compound, how does the Potency read?
Answer: inconclusive: 20 µM [cytotoxic, single point]

Question: For `Cc1ccc(-c2nn(C)c(=O)c3ccccc23)cc1S(=O)(=O)NCCN1CCOCC1`, which Potency is on record?
Answer: inactive

Question: Which Potency does the source give for `CC1=C(C(=O)Nc2cc(Cl)ccc2C)C2(CCCCC2)OC1=O` here?
Answer: inactive

Question: For `CCN(CC)c1cc(C)c2cc(NC(=O)c3ccccc3Cl)ccc2n1`, which Potency is on record?
Answer: inconclusive: 20 µM [cytotoxic, partial curve]

Question: Which Potency does the source give for `CCCCCCCCCCCCCCCC(=O)O[C@H](CC(=O)O)C[N+](C)(C)C` here?
Answer: inconclusive: 15.8 µM [cytotoxic, partial curve] and inconclusive: 15.8 µM [cytotoxic, partial curve, poor fit]

Question: Which Potency does the source give for `COc1ccc(-c2ccc(SCC(=O)Nc3cc(C)on3)nn2)cc1OC` here?
Answer: inconclusive: 10 µM [cytotoxic, partial curve]

Question: Which Potency does the source give for `N#Cc1ccccc1NC(=O)C(=O)NCCc1csc(-c2ccc(C(F)(F)F)cc2)n1` here?
Answer: inconclusive: 25.1 µM [cytotoxic, partial curve, poor fit]

Question: For `COc1ccc(-c2cc(C(=O)N3CCOCC3)no2)cc1OC`, which Potency is on record?
Answer: inactive

Question: With `Cn1cc(S(=O)(=O)N2CCCCCC2)cc1C(=O)N1CCN(c2cccc(C(F)(F)F)c2)CC1` as the compound, how does the Potency read?
Answer: inconclusive: 0.0316 µM [cytotoxic, full curve]

Question: For `O=C(/C=C/c1ccco1)Nc1ccc(F)cc1`, which Potency is on record?
Answer: inconclusive: 15.8 µM [cytotoxic, partial curve]

Question: For `CCOC(=O)C1CCCN(c2nc3c(S(=O)(=O)c4ccc(Br)cc4)nnn3c3ccsc23)C1` (stereo unspecified), which Potency is on record?
Answer: inconclusive: 3.16 µM [cytotoxic, single point]

Question: With `COc1ccc(-n2cc(C(=O)N(CCN(C)C)Cc3ccccc3)c3ccccc3c2=O)cc1` as the compound, how does the Potency read?
Answer: inconclusive: 5.62 µM [cytotoxic, single point]

Question: Which Potency does the source give for `COc1ccc(CCNC(=O)CSc2nc3nc(C)c(Cc4ccc(C)cc4)c(C)n3n2)cc1OC` here?
Answer: inactive

Question: For `Cc1cccc(Nc2nc(Nc3cccc(C)c3)nc(N3CCOCC3)n2)c1`, which Potency is on record?
Answer: inconclusive: 10 µM [cytotoxic, partial curve]

Question: For `O=C(Nc1ccccc1C(=O)O)c1ccc2ccccc2n1`, which Potency is on record?
Answer: inconclusive: 15.8 µM [cytotoxic, partial curve]

Question: For `COC(=O)c1cc(C(=O)OC)cc(N2C(=O)CC(Sc3nc(C)cc(C)n3)C2=O)c1` (stereo unspecified), which Potency is on record?
Answer: inactive

Question: For `CCOc1ccc(-c2nc(-c3ccccc3C)no2)cc1`, which Potency is on record?
Answer: inconclusive: 10 µM [cytotoxic, single point]

Question: For `CCOC(=O)c1nc(Nc2ccc(OC)cc2)c2ccccc2n1`, which Potency is on record?
Answer: inconclusive: 31.6 µM [cytotoxic, single point]

Question: For `Cc1ccccc1Nc1c(-c2cccc(O)c2)nc2ccc(Br)cn12`, which Potency is on record?
Answer: inconclusive: 12.6 µM [cytotoxic, partial curve]

Question: For `COc1ccc(-c2n[nH]c3c2C(c2ccc(Cl)cc2Cl)NC3=O)cc1` (stereo unspecified), which Potency is on record?
Answer: inconclusive: 31.6 µM [cytotoxic, single point]

Question: With `Cc1ccc(F)cc1NC(=O)CCc1c(C)nn(-c2ccc(N3CCCCC3)nn2)c1C` as the compound, how does the Potency read?
Answer: inconclusive: 10 µM [cytotoxic, partial curve]

Question: Which Potency does the source give for `OC1(c2cccc(C(F)(F)F)c2)CCN(c2ncnc3c2[nH]c2ccc(F)cc23)CC1` here?
Answer: inconclusive: 31.6 µM [cytotoxic, single point]

Question: With `CC1CCN(c2ccc(-c3cccc(NS(=O)(=O)c4ccc(Cl)s4)c3)nn2)CC1` as the compound, how does the Potency read?
Answer: active: 3.98 µM

Question: With `O=C(Nc1ccc2sccc2c1)c1ccc(Cl)s1` as the compound, how does the Potency read?
Answer: inconclusive: 15.8 µM [cytotoxic, partial curve]

Question: With `CCOc1ccc(OCC)c(NC(=O)c2cnc3c(-c4ccccc4)c(C)nn3c2C)c1` as the compound, how does the Potency read?
Answer: inconclusive: 6.31 µM [cytotoxic, full curve, poor fit]

Question: For `COc1ccccc1CNc1ncnc2ccc(-c3cccc(NS(C)(=O)=O)c3)cc12`, which Potency is on record?
Answer: inactive

Question: With `COc1cccc(NC(=O)c2oc3ccccc3c2NC(=O)COc2ccccc2C)c1` as the compound, how does the Potency read?
Answer: inconclusive: 25.1 µM [cytotoxic, single point]

Question: For `COC(=O)c1ccccc1NC(=O)CCCn1nc(C)c2sc3ccccc3c2c1=O`, which Potency is on record?
Answer: inconclusive: 7.94 µM [cytotoxic, partial curve]

Question: Which Potency does the source give for `CCCCCCCN(C(=O)CCl)c1ccccc1C` here?
Answer: active: 25.1 µM

Question: With `Cc1oc(-c2ccccc2F)nc1CN1CCC(C(=O)NCCc2ccc(Cl)cc2)CC1` as the compound, how does the Potency read?
Answer: inconclusive: 31.6 µM [cytotoxic, single point]

Question: For `Cc1ccc(-c2cc(C(=O)N3CCN(c4ncccn4)CC3)c3ccccc3n2)cc1`, which Potency is on record?
Answer: active: 12.6 µM

Question: For `Cc1ccc(NC(=O)CSc2ncccc2C(=O)Oc2ccccc2Cl)cc1Cl`, which Potency is on record?
Answer: inconclusive: 7.94 µM [cytotoxic, partial curve]

Question: For `CCS(=O)(=O)N1CCc2cc(C(=O)N3CCN(c4ccccc4)CC3)ccc21`, which Potency is on record?
Answer: inconclusive: 20 µM [cytotoxic, single point]

Question: For `Cc1ccc(C)c(NC(=O)c2ccc(=O)n(Cc3ccc(F)cc3)c2)c1`, which Potency is on record?
Answer: inactive

Question: Which Potency does the source give for `CCCCc1nn2c(=O)cc(COC(=O)c3ccccc3NC(=O)C3CCCCC3)nc2s1` here?
Answer: inactive

Question: For `CCOC(=O)c1c(-c2ccccc2)oc2ccc(NS(=O)(=O)c3ccccc3)cc12`, which Potency is on record?
Answer: active: 15.8 µM

Question: With `CCN(C(=O)CSc1nnc(C)n2c1cc1occc12)c1ccccc1` as the compound, how does the Potency read?
Answer: inconclusive: 25.1 µM [cytotoxic, single point]

Question: For `COc1ccc(CNC(=O)c2cnc(N3CCCC3)nc2C)cc1`, which Potency is on record?
Answer: inactive

Question: Which Potency does the source give for `COc1ccc(CSc2nc3ccncc3n2Cc2nc(-c3ccc(OC)c(OC)c3)oc2C)cc1` here?
Answer: inconclusive: 15.8 µM [cytotoxic, partial curve]

Question: For `CCOC(=O)C1=C(C)OC(N)=C(C#N)C1c1ccsc1` (stereo unspecified), which Potency is on record?
Answer: inactive

Question: Which Potency does the source give for `CCOC(=O)CSc1nc2c([nH]c3ccccc32)c(=O)n1-c1ccc(OCC)cc1` here?
Answer: inconclusive: 10 µM [cytotoxic, partial curve]

Question: For `O=C(Nc1ccc(Br)cc1)c1ccc(Br)c(S(=O)(=O)NCc2ccccc2)c1`, which Potency is on record?
Answer: inconclusive: 20 µM [cytotoxic, partial curve]

Question: For `CCOc1ccc(CNC(=O)Cn2nc(C)c3sc4ccccc4c3c2=O)cc1`, which Potency is on record?
Answer: inactive

Question: With `O=C(CSc1nc2c([nH]c3ccccc32)c(=O)n1-c1ccc(F)cc1)N1CCCCCC1` as the compound, how does the Potency read?
Answer: inconclusive: 15.8 µM [cytotoxic, single point]

Question: For `CN(C(=O)c1cccc(Nc2ccc(-c3ccc4c(c3)OCCO4)nn2)c1)C1CCCCC1`, which Potency is on record?
Answer: active: 11.2 µM

Question: For `Cc1sc2nc(SCC(=O)NCc3ccco3)[nH]c(=O)c2c1C`, which Potency is on record?
Answer: inactive

Question: Which Potency does the source give for `CN1CCC(=C2c3ccccc3C=Cc3ccccc32)CC1` here?
Answer: inconclusive: 12.6 µM [cytotoxic, partial curve]

Question: Which Potency does the source give for `CCOC(=O)c1c(-c2ccc(C)cc2)csc1NC(=O)c1cc(=O)c2cc(C)c(C)cc2o1` here?
Answer: inactive

Question: With `O=C(NCc1cccs1)c1ccc(CSc2nc3ccncc3n2Cc2cccc(F)c2)cc1` as the compound, how does the Potency read?
Answer: inactive

Question: For `Cc1sc2ncnc(Sc3nnnn3-c3ccc(Cl)cc3)c2c1C`, which Potency is on record?
Answer: active: 5.01 µM

Question: Which Potency does the source give for `CCN(Cc1ccccc1)C(=O)Nc1ccc2c(c1)N(C)C(=O)c1ccccc1S2` here?
Answer: inactive

Question: With `COc1ccccc1CNC(=O)Cn1c(=O)ccc2cc(S(=O)(=O)N3CCC(C)CC3)ccc21` as the compound, how does the Potency read?
Answer: inconclusive: 35.5 µM [cytotoxic, single point]

Question: For `CCN1CCN(Cc2ccc(NC(=O)Nc3ccccc3OC)cc2)CC1`, which Potency is on record?
Answer: active: 10 µM

Question: For `Cc1ccc(NC(=O)CCc2c(C)nn(-c3ccc(N4CCCCC4)nn3)c2C)cc1F`, which Potency is on record?
Answer: active: 12.6 µM

Question: For `COc1ccc2c(c1OC)C(Cc1ccccc1)N1CCc3cc4c(cc3C1=C2)OCO4` (stereo unspecified), which Potency is on record?
Answer: inactive

Question: With `Cc1cc(NC(=O)CSc2nnc(-c3ccc(Cl)s3)o2)no1` as the compound, how does the Potency read?
Answer: inconclusive: 20 µM [cytotoxic, single point]

Question: Which Potency does the source give for `CC1Cc2ccccc2N1S(=O)(=O)c1nnc(NC(=O)c2ccccc2Br)s1` (stereo unspecified) here?
Answer: inconclusive: 12.6 µM [cytotoxic, partial curve, poor fit]

Question: For `N#Cc1c(-c2ccccc2)no[n+]1[O-]`, which Potency is on record?
Answer: active: 15.8 µM

Question: For `O=C(CSc1c2c(nc3ccc(Cl)cc13)CCCC2)N1CCN(C(=O)c2ccco2)CC1`, which Potency is on record?
Answer: active: 6.31 µM

Question: Which Potency does the source give for `COc1ccc(C2=CC(c3ccc(N(C)C)cc3)n3nnnc3N2)cc1` (stereo unspecified) here?
Answer: inconclusive: 6.31 µM [cytotoxic, full curve]

Question: Which Potency does the source give for `Cc1ccc(-c2nc3cc(N)ccc3o2)cc1` here?
Answer: active: 3.98 µM

Question: For `c1c2c(cc3sc(N4CCCCC4)nc13)OCCO2`, which Potency is on record?
Answer: active: 2 µM

Question: Which Potency does the source give for `Cc1cc(=O)oc2c3c(ccc12)OCN(Cc1ccccc1Cl)C3` here?
Answer: inconclusive: 0.0501 µM [cytotoxic, full curve, poor fit]

Question: For `COc1ccc(-c2cc(=O)c3ccccc3o2)cc1`, which Potency is on record?
Answer: inconclusive: 10 µM [cytotoxic, partial curve]
